Hit rate of the full screen: of about 150,000 compounds, about 540 (0.36%) showed an effect of 50% or more. This is one part of the list.

For orientation: % Inhibition means the drop in the measured response relative to a control, in per cent.

In the assay the test system is Plasmodium falciparum. As to the kind of experiment: Primary screen in NF54 nanoGlo assay, in single point, at 2uM, 72h; a lower Z score goes with more inhibition. Format: functional, Erythrocyte. The note with it: timepoint 72 hour.
As to `COCc1nc(C)cc(NCCc2c[nH]c3cc(F)c(Cl)cc23)n1`, the “% Inhibition” value was -3% and the Z score came to 0.5.

For the molecule `COc1cc(-c2nnc(NC(=O)C3CCCCC3)o2)cc(OC)c1OC`, the “% Inhibition” value is reported as 14% and the Z score is on record as -1.92.

For `c1csc(-c2nc(Cn3cnc4c3CCNC43CCOCC3)co2)c1`, the “% Inhibition” value is recorded as -7% and the Z score was 1.2.

In the case of `OC1(c2nc(COCc3ccccc3)no2)CCCCC1`, the “% Inhibition” value is recorded as -13% and the Z score was 1.69.

`CN1C(=O)COC12CCN(C(=O)Cc1ccccc1N1CCCC1=O)CC2`: the “% Inhibition” value is recorded as 1% and the Z score is recorded as -0.15.

With `CNC(=O)CCN(C)c1nc(-c2c[nH]c3ccccc23)nc2c1CNC2`, the “% Inhibition” value is given as -5% and the Z score turned out to be 0.85.

As to `CNC(=O)CCS(=O)(=O)CCCC(=O)Nc1c(C)cc(C)cc1C`, the “% Inhibition” value is listed as 36% and the Z score was -4.64.

`O=C(c1ccccc1)n1c(=O)n(C(=O)c2ccccc2)c2ccccc21`: the “% Inhibition” value is given as 33% and the Z score is given as -0.79.

`c1ccc2c(N[C@@H]3C[C@H]4CC[C@@H]3O4)ccnc2c1`: the “% Inhibition” value stood at 3% and the Z score is -0.51.

For `Cc1ccc([C@H](CC(F)(F)F)NCc2c[nH]c3nccnc23)cc1`, the “% Inhibition” value is on record as -2% and the Z score is 0.45.

For the molecule `CC(C)c1cc(NC(=O)Nc2ccn(CCC#N)n2)[nH]n1`, the “% Inhibition” value was -2% and the Z score is reported as 0.34.

Turning to `C[C@H]1Cc2cc(S(=O)(=O)NC(=O)c3cncc(F)c3)cc(Cl)c2O1`, the “% Inhibition” value is given as -4% and the Z score is reported as 0.79.

Consider `O=C(c1ccccc1)N1CCC(N2CC[C@@H]3OCc4cnnn4[C@H]3C2)CC1`, for which the “% Inhibition” value was determined as 11% and the Z score is recorded as -1.48.

With `CCOCCNC(=O)C(=O)Nc1ccc(C(F)(F)F)cc1Cl`, the “% Inhibition” value amounted to 1% and the Z score was -0.12.

`Cc1nn(C)c(C)c1CCN/C(=N\c1cccc(F)c1)NC(=O)c1ccc(C(F)(F)F)cc1`: the “% Inhibition” value was 2% and the Z score is listed as -0.37.

Take `C[C@H]1CN(Cc2cn(C(C)(C)C)nn2)CCN1c1nc2ccccc2o1`: the “% Inhibition” value was -5% and the Z score is 0.45.

On to `Cn1ncc(NC(=O)Cc2cccc(F)c2)c(N2CCOCC2)c1=O`, for which the “% Inhibition” value is listed as -27% and the Z score turned out to be 5.08.

Regarding `Cc1cnccc1CC(=O)NC[C@H](C)Oc1ccc(Cl)cc1`, the “% Inhibition” value is on record as -6% and the Z score turned out to be 0.74.

For the molecule `C[C@H](NC(=O)C1=CCCCO1)c1ccccc1N1CCOCC1`, the “% Inhibition” value is given as 1% and the Z score is -0.12.

Consider `COCCn1nnn(-c2ccc(NC(=O)NC3CCCCC3)cc2)c1=O`, for which the “% Inhibition” value is -15% and the Z score was 2.91.

For `Cc1cccc(NC(=O)Cn2nnn(C3CC3)c2=O)c1`, the “% Inhibition” value was found to be 11% and the Z score is reported as -1.42.

As for `O=C(c1occ2c1CCC2)N1CC(Oc2nccs2)C1`, the “% Inhibition” value is reported as -13% and the Z score stood at 1.67.

Take `Cc1ccc(NC(=O)Nc2ccn(Cc3ccncc3)n2)c(C)n1`: the “% Inhibition” value is listed as -37% and the Z score is given as 4.37.

`CCN1CC[C@@]2(CCC1=O)CN(CCn1cc(Cl)cn1)CCN2C`: the “% Inhibition” value is 2% and the Z score was -0.27.

As for `CN(CCCn1cccn1)CCc1ccncc1`, the “% Inhibition” value is listed as -4% and the Z score came out at 0.6.

With `O=S(=O)(Cc1ccncc1)Cc1cccc(OC(F)F)c1`, the “% Inhibition” value is -8% and the Z score came to 1.27.

On to `NC(=O)[C@@H]1CCCN1CCCNC(=O)N1CCC2(CCCCC2)C1`, for which the “% Inhibition” value was -6% and the Z score is 0.82.

On to `c1nc(-c2noc([C@H]3CCCc4[nH]nnc43)n2)co1`, for which the “% Inhibition” value came to 0% and the Z score was -0.04.

As to `CN(C(=O)N[C@H](c1cc2ccccc2o1)C1CC1)C1CC1`, the “% Inhibition” value is on record as 14% and the Z score is on record as -2.18.

`c1ccc(CCCN2CC[C@H]3[C@H](CCCN3Cc3cccn3-c3nccs3)C2)cc1`: the “% Inhibition” value is -8% and the Z score worked out at 1.55.

`Cc1cnc(CN2CCC(C(=O)NCc3ccccc3)CC2)cn1`: the “% Inhibition” value is -8% and the Z score is reported as 1.18.

Consider `Fc1ccc(-c2nnc(-c3cnc4onc(-c5ccccc5)c4c3)o2)cc1`, for which the “% Inhibition” value turned out to be 14% and the Z score was -1.86.

On to `O=C(O)C1CC2(C1)C[C@@H](NCc1cc(F)cc(Cl)c1)CCO2` (stereo not given in full), for which the “% Inhibition” value is recorded as -6% and the Z score is reported as 1.25.

For the molecule `O=C(Cn1nc2c(N3CCCCCC3)nccn2c1=O)Nc1ccc(F)cc1`, the “% Inhibition” value was 10% and the Z score is -1.

Regarding `O=C(NCc1ccc(-c2ncon2)cc1)C1CCCCCC1`, the “% Inhibition” value is reported as -8% and the Z score turned out to be 1.75.

As for `COCC1(CNC(=O)c2c(C)ncnc2C)CC1`, the “% Inhibition” value was found to be 8% and the Z score is on record as -1.04.

As for `Cc1nc(CNC(=O)c2cncc(Cl)c2C)ccc1[C@H](C)O`, the “% Inhibition” value is on record as -7% and the Z score is recorded as 0.87.

For `O=C1NCCC[C@@H]1Nc1nc(C2CCCC2)ns1`, the “% Inhibition” value is -15% and the Z score is 2.31.

For the molecule `CCn1cnnc1C[C@H]1CCN(S(=O)(=O)c2ccc3c(c2)CCC3)C1`, the “% Inhibition” value is listed as -4% and the Z score was determined as 0.71.

In the case of `CCCN(CCC(=O)N1CCNCC1)C(=O)c1cccc(Cl)c1`, the “% Inhibition” value is recorded as -13% and the Z score was found to be 1.72.

With `CC1=NN(C(=O)Cc2ccc(Cl)c(O)c2)C(=O)C1`, the “% Inhibition” value worked out at 34% and the Z score was -4.35.

For the molecule `COc1cccc(OC)c1CC(=O)N1CC[C@H](O)C12CCCC2`, the “% Inhibition” value amounted to 12% and the Z score is -1.43.

With `CCn1nccc1-c1ncc(F)c(N2CCOCC2)n1`, the “% Inhibition” value is reported as -1% and the Z score was 0.18.

In the case of `COCCc1nc(CNC(=O)[C@H](C)n2ccnc2C)no1`, the “% Inhibition” value is reported as -6% and the Z score is listed as 0.54.

Take `Cc1cc(C2CCC2)nc(-c2cccc(C(=O)NCCc3c[nH]cn3)c2)n1`: the “% Inhibition” value amounted to 0% and the Z score amounted to 0.04.

As for `Cc1ncn(C[C@H](O)c2ccccc2Br)c(=O)c1C`, the “% Inhibition” value is given as -11% and the Z score was 1.69.

Regarding `O=S(=O)(c1cccnc1)N1CCN(Cc2cc3n(n2)CCCC3)CC1`, the “% Inhibition” value was -11% and the Z score came out at 1.38.

`c1ccc(COc2ccc3c(c2)CC[C@@]2(CCNC2)O3)cc1`: the “% Inhibition” value is recorded as -6% and the Z score came out at 0.86.

Turning to `O=C(NCCc1ccsc1)NC1CCCCCC1`, the “% Inhibition” value was -12% and the Z score came out at 1.4.

Consider `Cc1ccc(CN(C(=O)NCc2cccs2)[C@H]2CCc3ccccc32)cc1`, for which the “% Inhibition” value came to 1% and the Z score is on record as -0.19.

On to `Cc1ccc(NC(=O)N2CC[C@@H]3COC(=O)N(Cc4ccccc4)[C@@H]3C2)cc1C`, for which the “% Inhibition” value was -20% and the Z score is 2.67.

For `COc1cccc(C[C@]2(C(=O)O)CCCN(c3cnc4ccccc4n3)C2)c1`, the “% Inhibition” value is on record as 14% and the Z score was -1.9.

Take `CN1CCN(C(=O)c2ccc(NCc3ccc(F)cc3)c(S(=O)(=O)Nc3cccc(C(F)(F)F)c3)c2)CC1`: the “% Inhibition” value was 1% and the Z score is given as -0.17.

Regarding `FC(F)(F)c1ccnc(N2CCc3cncnc3C2)n1`, the “% Inhibition” value is listed as -1% and the Z score was found to be 0.2.

Consider `CNC[C@H](C)CNS(=O)(=O)c1cc(C)c(C)s1`, for which the “% Inhibition” value is -4% and the Z score is 0.48.

The values above are taken from ChEMBL document CHEMBL4888484, “Replenishing the malaria drug discovery pipeline: Screening and hit evaluation of the MMV Hit Generation Library 1 (HGL1) against asexual blood stage Plasmodium falciparum ,using a nano luciferase reporter read-out” (2022).
